# Measurements reported in PubChem BioAssay AID624417 (National Center for Advancing Translational Sciences (NCATS), 2012).
# Screen size: about 410,000 compounds; about 6,400 (1.6%) were called active. The inconclusive results got no clear call from the source; some entries with a clear call stand among them for comparison. Calls follow the shape of the dose curve; as a rule, active = well fitted inhibition curve with a large enough effect; inconclusive = small, poorly fitted or top-dose-only effect; inactive = no such curve, though single readings can be large or run the other way. No potency is given beside an inconclusive call; the fits are too rough.
# Molecular target: Glucagon-like peptide 1 receptor (Homo sapiens) (UniProt P43220)
# Assay: qHTS of GLP-1 Receptor Inverse Agonists (Inhibition Mode); also: nearly all actives have a fitted effect of over 55% in size
# Details: HEK293 GLP-1R CRE-luciferase, luminescence, 24 h, GLP-1R form is constitutively active; activity change, negative = inhibition: at 38.3 µM (top of the series) unless noted
# Summary of the method: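 Stable HEK293 clone (constitutively active GLP-1R + cAMP-response luciferase); 200 cells/uL plated, 12 h pre-culture, compound 24 hr, 37 deg C/5% CO2; detection reagent 12 min RT; luminescence.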
# % is scaled to controls: 0 for no effect and ±100 for the full control effect; potency is read from the fitted curve at half-maximal effect; tags tell the direction and shape of the fitted curve.
# Sequence of UniProt P43220 (P43220 whole entry, looked up): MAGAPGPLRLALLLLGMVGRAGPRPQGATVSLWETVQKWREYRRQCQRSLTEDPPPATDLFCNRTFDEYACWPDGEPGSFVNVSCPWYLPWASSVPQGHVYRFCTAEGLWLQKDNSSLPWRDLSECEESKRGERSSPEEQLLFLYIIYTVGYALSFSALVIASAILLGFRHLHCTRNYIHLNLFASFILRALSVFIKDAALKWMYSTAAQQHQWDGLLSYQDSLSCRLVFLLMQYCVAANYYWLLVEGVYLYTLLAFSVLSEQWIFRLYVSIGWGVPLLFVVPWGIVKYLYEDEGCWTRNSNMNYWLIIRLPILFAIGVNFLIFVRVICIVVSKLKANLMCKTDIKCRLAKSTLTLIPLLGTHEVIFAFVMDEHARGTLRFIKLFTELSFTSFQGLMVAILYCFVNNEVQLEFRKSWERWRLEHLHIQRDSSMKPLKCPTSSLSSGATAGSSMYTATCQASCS
SMILES,Potency,"activity change, negative = inhibition"
COc1ccc(C(=O)Nc2ccc3nc(SCC(=O)N4CCCc5ccccc54)sc3c2)cc1,"inconclusive [inhibitor, single point]",
O=C(Cc1ccccc1)N1CCc2ccccc21,"inconclusive [inhibitor, single point]",
N#CC(C#N)=C1C=CC=CN1/C(=C\c1ccco1)C(=O)c1ccc(-c2ccccc2)cc1,"inconclusive [inhibitor, single point]",
O=[N+]([O-])c1ccc(OCCN2CCCCCC2)cc1,"inconclusive [inhibitor, partial curve, poor fit]",
COc1ccc(C(C#N)C2(C)OCCO2)cc1OC (stereo not given),,inactive: 10.2%
Cc1ccc(-n2[nH]c(C)c(C=Nc3ccc4[nH]c(=O)[nH]c4c3)c2=O)cc1C,"inconclusive [inhibitor, single point]",
COc1cc(OC)cc(C(=O)NC2CCN(C(=O)N3c4ccccc4Sc4ccccc43)CC2)c1,active: 10 µM,
CCCN(C(=O)CSc1nc2c(cnn2-c2ccccc2)c(=O)[nH]1)C1CCS(=O)(=O)C1 (stereo not given),,inactive: 16.7%
O=C(O)c1ccc(S(=O)(=O)/N=C2\C=C(Nc3ccccc3F)C(=O)c3ccccc32)cc1,"inconclusive [inhibitor, partial curve, poor fit]",
CC(C)(C)OC(=O)N1CCC[C@H]1c1nnc(SC/C=C/c2ccccc2)o1,"inconclusive [inhibitor, single point]",
COCCNc1nc(NCCOc2ccccc2Cl)c2sccc2n1,"inconclusive [inhibitor, single point]",
N#Cc1nc(Cc2cccc3ccccc23)oc1NCCCn1ccnc1,"inconclusive [inhibitor, partial curve]",
COc1ccc(C2CC(c3ccc(C)cc3)Nc3ncnn32)cc1 (stereo not given),,inactive: 5.72%
O=C(c1ccco1)N1CCN(C(c2ccc(F)cc2)c2nnnn2Cc2cccs2)CC1 (stereo not given),"inconclusive [inhibitor, partial curve, poor fit]",
O=C(Cn1c(C(=O)c2ccccc2)nc2ccccc21)c1ccc(Cl)cc1,"inconclusive [inhibitor, partial curve, poor fit]",
COc1ccc(S(=O)(=O)NCCc2csc(-c3ccc(F)cc3)n2)cc1,"inconclusive [inhibitor, single point]",
O=C(CSC1=Nc2ccccc2C2=NC(Cc3ccccc3)C(=O)N12)Nc1ccccc1F (stereo not given),,inactive: -7.11%
Cc1nn(-c2ccccc2)c(Cl)c1C(=O)OC(C)C(=O)Nc1ccc2c(c1)OCO2 (stereo not given),"inconclusive [inhibitor, single point]",
COCCNC(=S)N/N=C(\C)c1ccccc1O,"inconclusive [inhibitor, full curve, poor fit]",
Cc1ccccc1CN(C)CC(=O)NC(C)CCc1ccccc1 (stereo not given),"inconclusive [inhibitor, single point]",
Cc1cc(C)c(OCCCCN2CCC(C)CC2)c(Br)c1,"inconclusive [inhibitor, partial curve, poor fit]",
Cc1cc(C(=O)Nn2c(-c3ccc(Br)cc3)nc3ccccc3c2=O)ccc1[N+](=O)[O-],"inconclusive [inhibitor, partial curve, poor fit]",

SMILES,Potency,"activity change, negative = inhibition"
CCc1ccc(-n2nc(C)c3c(C(=O)Nc4cc(OC)cc(OC)c4)cc(C)nc32)cc1,active: 5.01 µM,
O=C(COc1ccc2c(c1)CCC2)N1CCc2ccccc21,"inconclusive [inhibitor, single point]",
CCN(CC(=O)Nc1cc(Cl)ccc1C)C(=O)COc1cccc2c1OC(C)(C)C2,"inconclusive [inhibitor, single point]",
CCOc1ccc(-c2nc(SCC(=O)NCCOC)c(-c3ccc(OC)c(OC)c3)[nH]2)cc1,,inactive: -13.3%
Cc1c(C(=O)NCc2cccc(Cl)c2)sc(=O)n1Cc1ccc(F)cc1,"inconclusive [inhibitor, single point]",
CC1CN(C(=O)CCC(=O)NC2CCN(Cc3ccccc3)CC2)c2ccccc2O1 (stereo not given),"inconclusive [inhibitor, partial curve, poor fit]",
CCCNC(=O)c1c(Cl)cnn1-c1ccc(C)cc1,"inconclusive [inhibitor, single point]",
COc1ccc(N(C(=O)c2snc(C(N)=O)c2N)C(C(=O)NCc2ccccc2)c2ccc(F)cc2)c(OC)c1 (stereo not given),"inconclusive [inhibitor, single point]",
O=C(OCC(=O)N1CCN(c2ccccc2)CC1)c1ccccc1NCCO,"inconclusive [inhibitor, single point]",
COc1ccc(OCC(=O)O/N=C(\N)Cc2ccc(Cl)cc2)cc1,,inactive: -26.8%
N#Cc1nc(-c2ccccc2F)oc1NCCc1ccccc1,,inactive: -2.63%
CCN(CC)CCNCC(=O)Nc1ccc(Oc2ccccc2)cc1,"inconclusive [inhibitor, partial curve, poor fit]",
Cc1ccc(NC(=O)C2CCCN(S(=O)(=O)c3cccc4cccnc34)C2)cc1Cl (stereo not given),active: 10 µM,
Cc1ccc(C(=O)Nc2cccc(C(=O)OCc3cc(=O)n4c5c(sc4n3)CCCC5)c2)cc1,"inconclusive [inhibitor, partial curve, poor fit]",
Cc1ccc2[nH]cc(C(c3ccccc3)c3cccs3)c2c1 (stereo not given),active: 10 µM,
c1ccc(C[C@H]2CN=C(Nc3ccccc3)N2CCCC2CCCC2)cc1,"inconclusive [inhibitor, single point]",
NC(=O)c1c(Nc2nc3c(F)cccc3s2)sc2c1CCCC2,"inconclusive [inhibitor, partial curve, poor fit]",
COC(=O)C1=C(C)N=C2SC(C)C(=O)N2C1c1ccc(C(=O)OC)cc1 (stereo not given),,inactive: -0.855%
O=S(=O)(c1ccc(F)cc1)N1CCC(n2cnc3ccccc32)CC1,"inconclusive [inhibitor, single point]",
CCCCCCCCNS(=O)(=O)CCNCc1ccco1,"inconclusive [inhibitor, single point]",
CC/C(=C\C1CCCCC1)C(NP(=O)(c1ccccc1)c1ccccc1)c1ccccc1 (stereo not given),"inconclusive [inhibitor, partial curve, poor fit]",
CCC(CO)Oc1cc(NCc2ccc(OC)cc2)c2ncn(C(C)C)c2c1 (stereo not given),"inconclusive [inhibitor, single point]",

SMILES,Potency,"activity change, negative = inhibition"
COc1ccc(C(=O)Sc2ccc(C)cc2)cc1OC,"inconclusive [inhibitor, single point]",
CCCCN1C(=O)C(=O)N(CC(=O)Nc2sc(C)c(CC)c2C(=O)OCC)C1=O,"inconclusive [inhibitor, single point]",
CN(C)c1ccc(C(=S)N2CCN(C(=S)Nc3ccc(Cl)cc3)CC2)cc1,"inconclusive [inhibitor, partial curve]",
COc1ccc(C(=O)O)cc1N1C(=O)Nc2ccccc2N1O,,inactive: 1.61%
COc1cc(CN2CC(=O)N(c3ccc(C)c(Cl)c3)C2=S)cc(OC)c1OC,active: 8.91 µM,
CN(C)CCCN(C(=O)c1ccc2c(c1)CCCC2)c1nc2ccc(F)cc2s1,,inactive: 6.54%
COc1ccccc1C(=O)Nc1ccc(Oc2ncnc3sc(-c4ccccc4)cc23)cc1,,inactive: -8.17%
CCC(C)Sc1ccc([C@H]2N[C@@](CC(C)C)(C(=O)OC)[C@H]3C(=O)N(C)C(=O)[C@@H]23)cc1 (stereo not given in full),"inconclusive [inhibitor, single point]",
COc1ccccc1CNc1nc(NCc2ccccc2)nc2ccsc12,"inconclusive [inhibitor, single point]",
CNS(=O)(=O)c1cccc(C(=O)OCC(=O)c2cc(C)n(CC3CCCO3)c2C)c1 (stereo not given),"inconclusive [inhibitor, partial curve, poor fit]",
COC(=O)CC1(C(=O)OC)Oc2ccc(Br)cc2C(=O)N1c1ccc(Br)cc1Cl (stereo not given),active: 10 µM,
CCCN1CNC(=S)N(c2cc(C)ccc2C)C1,,inactive: -6.17%
Cc1ccc(C[n+]2cc(-c3ccc(Cl)cc3)n3c2CCC3)cc1,"inconclusive [inhibitor, partial curve, poor fit]",
COc1ccccc1CNC(=O)c1cn(C)c2ccc(S(=O)(=O)N3CCC(C)CC3)cc2c1=O,,inactive: -2.85%
CC(=O)c1cccc(-n2c(=O)c3c4c(sc3n(Cc3ccccc3Cl)c2=O)CN(C(C)=O)CC4)c1,,inactive: 17.6%
Cc1ccccc1C(=O)Nc1ccc(C(=O)N/N=C/c2ccc(O)cc2)cc1,"inconclusive [inhibitor, full curve]",
O=C(Nc1ccccc1Cl)c1cc(C2CCCCN2C(=O)CCc2ccccc2)on1 (stereo not given),"inconclusive [inhibitor, single point]",
Cc1ccc(C2CCN(C(=O)c3cnn(-c4ccccc4Cl)c3C3CCN(C(=O)OC(C)(C)C)CC3)C2)cc1 (stereo not given),"inconclusive [inhibitor, single point]",
COc1ccc2[nH]c3c(c2c1)CCN1C(=O)C(CC(=O)NCC24CC5CC(CC(C5)C2)C4)C[C@H](C(=O)N2CCOCC2)[C@@]31C (stereo not given in full),"inconclusive [inhibitor, partial curve, poor fit]",
NC(c1csc(Nc2ccccn2)n1)C1CCCCC1 (stereo not given),"inconclusive [inhibitor, single point]",
COc1ccc2nc(N(CCN(C)C)C(=O)/C=C/c3cccs3)sc2c1,"inconclusive [inhibitor, partial curve, poor fit]",
